# Measured values as given in publication PMC4336329 (PLoS ONE, 2015).
# The whole screen tested about 310,000 compounds, of which about 14,000 (4.5%) showed an effect of 50% or more. Effects have a minus sign here. The list shows a part of the results.
# Molecular target: human ether-à-go-go-related gene (hERG) potassium channel (human, UniProt Q12809)
# Test: primary screen, population patch clamp on CHO cells stably expressing hERG
# 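Further: peak tail current of the secondary pulse compared with the same well before compound.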
# human ether-à-go-go-related gene (hERG) potassium channel, sequence (Q12809 whole entry, looked up): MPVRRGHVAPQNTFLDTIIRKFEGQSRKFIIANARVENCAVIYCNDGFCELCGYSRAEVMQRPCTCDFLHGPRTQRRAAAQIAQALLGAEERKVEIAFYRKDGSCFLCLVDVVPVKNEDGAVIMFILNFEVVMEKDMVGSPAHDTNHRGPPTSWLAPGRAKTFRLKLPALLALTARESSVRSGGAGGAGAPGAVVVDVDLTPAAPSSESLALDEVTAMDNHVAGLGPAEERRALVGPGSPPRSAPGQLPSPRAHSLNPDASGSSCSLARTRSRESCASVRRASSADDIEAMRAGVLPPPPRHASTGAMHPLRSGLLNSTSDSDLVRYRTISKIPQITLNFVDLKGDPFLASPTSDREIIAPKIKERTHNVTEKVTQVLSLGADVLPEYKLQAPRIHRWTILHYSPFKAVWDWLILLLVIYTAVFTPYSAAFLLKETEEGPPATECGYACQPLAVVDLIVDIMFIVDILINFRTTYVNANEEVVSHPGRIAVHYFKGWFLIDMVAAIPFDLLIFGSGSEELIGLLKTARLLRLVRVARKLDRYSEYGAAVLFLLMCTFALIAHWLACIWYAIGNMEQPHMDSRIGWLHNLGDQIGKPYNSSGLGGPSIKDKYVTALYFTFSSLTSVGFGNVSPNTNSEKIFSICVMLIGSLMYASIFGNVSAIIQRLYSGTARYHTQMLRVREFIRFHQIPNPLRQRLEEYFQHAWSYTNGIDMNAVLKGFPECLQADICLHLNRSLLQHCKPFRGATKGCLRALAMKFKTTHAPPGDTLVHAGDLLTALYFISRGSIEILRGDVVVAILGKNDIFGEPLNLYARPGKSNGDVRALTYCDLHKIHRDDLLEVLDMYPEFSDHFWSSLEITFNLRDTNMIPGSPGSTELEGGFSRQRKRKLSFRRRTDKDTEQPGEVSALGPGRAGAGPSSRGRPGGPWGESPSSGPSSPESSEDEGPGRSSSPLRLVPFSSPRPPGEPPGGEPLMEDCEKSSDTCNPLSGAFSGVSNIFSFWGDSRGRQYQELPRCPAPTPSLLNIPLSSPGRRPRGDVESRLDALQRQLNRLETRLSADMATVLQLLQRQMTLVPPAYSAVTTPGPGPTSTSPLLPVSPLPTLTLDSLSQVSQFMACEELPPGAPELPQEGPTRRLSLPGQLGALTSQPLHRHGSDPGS
row,Compound,"hERG current change (%, negative = inhibition) at 10uM [%]"
1,O=C(/C=C/c1ccccc1[N+](=O)[O-])NCC1CCCO1 (centres unmarked),-3.47
2,C=CCc1cccc2cc(C(=O)N3CCN(C(=O)c4ccco4)CC3)c(=O)oc12,-1.92
3,O=C(OCC(=O)C12CC3CC(CC(C3)C1)C2)c1cnccn1,14.8
4,Cc1ccc(C(=O)O/N=C(\N)c2ccccn2)c(Cl)c1,-0.617
5,CCNc1nc2c(c(=O)[nH]c(=O)n2C)n1CC(C)C,2.16
6,Cc1cc2ccccn2c1C(=O)c1ccc([N+](=O)[O-])o1,9.2
7,C=CCOC(=O)C1=C(C)NC(SC)=C(C#N)C1c1cccs1 (centres unmarked),-15.1
8,CCCCCn1c(=O)[nH]c2cc(C(=O)NCCc3ccc(OC)c(OC)c3)ccc2c1=O,0.0929
9,CCc1ccccc1N(CC(=O)N1CCc2ccccc2C1)S(C)(=O)=O,2.16
10,O=C(CSc1nnc(CNC(=O)c2ccco2)o1)Nc1ccc(F)cc1F,8.95
11,CN(C)c1cccc(O)c1,23.9
12,CCOC(=O)c1ccc(NC(=O)c2n[nH]c(=O)c3ccccc23)cc1,5.74
13,C/C(Cc1ccccc1)=N\NC(=O)CNC(=O)c1cccc(Cl)c1,5.67
14,COc1ccc(Cc2nnc(NC(=O)Nc3ccccc3OC)s2)cc1,24.9
15,Cc1nn(CC(=O)Nc2ccc3c(c2)OCO3)c(C)c1Cl,0.823
16,COc1cc(OC)cc(C(=O)NCC(=O)OCc2cc(=O)oc3cc(OC)ccc23)c1,3.36
17,CCN(CC)CCCNC(=O)c1cn(C)c2ccc(S(=O)(=O)N(C)C)cc2c1=O,3.07
18,CCCCOC(=O)Nc1ccc(S(=O)(=O)Nc2nccs2)cc1,1.42
19,CCc1ccccc1NC(=O)CSc1nc(C)c(C)o1,9.02

row,Compound,"hERG current change (%, negative = inhibition) at 10uM [%]"
1,CCN(CC)CCOc1ccc2c(c1)C(=NNC(=O)c1ccccn1)c1cc(OCCN(CC)CC)ccc1-2,8.82
2,COc1ccc(C(=O)NCCCCCC(=O)O)cc1OC,-13.1
3,CC(C)c1ccc(N=c2c([N+](=O)[O-])nn(-c3ccc4c(c3)OCCO4)n2O)cc1,1.98
4,COc1ccc(NC(=O)CCNS(=O)(=O)c2ccc3c(c2)c(=O)n(C)c(=O)n3C)c(OC)c1,0.0542
5,Cc1ccc(N2CCN(C(=O)c3ccccc3Br)CC2)c(C)c1,-8.07
6,c1ccc(-c2csc(-n3cccn3)n2)cc1,15.5
7,CC(C)(C)NC(=O)C1CC(=O)OC1(C)C (centres unmarked),5.53
8,CS(=O)(=O)N1CCc2cc(C(=O)N3CCN(c4ccccc4F)CC3)ccc21,-19.3
9,COc1ccc(C(O)C(CN2CCOCC2)c2ccccc2)cc1F.Cl (centres unmarked),1.04
10,O=C(Nc1ccccc1)c1csc(-c2ccccc2)n1,14.3
11,CN1C(=O)/C(=C/c2ccc(OC(=O)c3ccco3)cc2)SC1=S,-8.91
12,COC(=O)C1=C(c2cccc(C#N)c2)C[C@@H]2CC[C@H]1N2C(=O)NCc1cccc2ccccc12,-22.1
13,COC(=O)c1[nH]c2cccc(Cl)c2c1NC(=O)CN1CCN(CCO)CC1,-0.514
14,FC(F)Oc1ccccc1NC(=S)NCCc1ccccc1,-4.2
15,CCC(=O)N1c2ccc(S(=O)(=O)CCC(=O)Nc3nccs3)cc2CC1C (centres unmarked),6
16,O=C(COC(=O)C1CCN(S(=O)(=O)c2ccc(Cl)c(C(F)(F)F)c2)CC1)NCc1ccco1,1.68
17,COc1ccc(-c2ncncc2-c2ccc(Cl)cc2)c(O)c1,-46.8
18,CC(C)=NN/C(N)=N/C(=S)Nc1ccc(C)cc1,-3.24
19,CCOc1ccc(C(Nc2ccc(C)cc2)P2(=O)OCCC(C)O2)cc1 (centres unmarked),-18.6

row,Compound,"hERG current change (%, negative = inhibition) at 10uM [%]"
1,CS(=O)(=O)N(CCc1ccccc1)CC(=O)N1CCN(Cc2ccc3c(c2)OCO3)CC1,-49.7
2,O=C(c1ccc(-c2cccc(C(F)(F)F)c2)o1)N1CCCCCCC1,-3.68
3,Cc1ccc(S(=O)(=O)N2CCCCC2)cc1NC(=O)C1CC(=O)N(Cc2ccccc2)C1 (centres unmarked),-12.9
4,CC(=O)Nc1ccc(S(=O)(=O)N2CCN=C2c2ccccc2)cc1,12.4
5,O=C(c1ccc(S(=O)(=O)Cc2cc(F)ccc2F)c([N+](=O)[O-])c1)N1CCCCC1,1.34
6,COc1ccc(NC(C)=O)cc1NC(=O)C1CCN(C(=O)Nc2ccccc2)CC1,9.01
7,COc1cc(CO)cc(Br)c1OCc1cccnc1,13.1
8,Cc1cccc(NC(=O)C(=O)NNC(=O)c2ccc(C(C)(C)C)cc2)c1,22.4
9,COCCn1c(SCC(=O)N2CCCc3ccccc32)nc2c(c1=O)SC(C)C2 (centres unmarked),-21.6
10,Cc1cccc(-c2noc(-c3c(C)noc3C)n2)c1,26.9
11,COc1ccc(C2CC(=O)c3cnc(NC(=O)c4ccccc4)nc3C2)cc1OC (centres unmarked),-15.7
12,CC1(C)Cc2c(sc3ncnc(NNC(=S)NCc4ccccc4)c23)CO1,17.2
13,COc1cc(O)c(C(CC(=O)N2CCCCC2)c2ccc3c(c2)OCO3)c(OC)c1 (centres unmarked),5.41
14,C=C(C)Cn1c(=O)c2c(nc3n2CC(C)CN3Cc2ccccc2)n(C)c1=O (centres unmarked),-65.6
15,O=C1/C(=C/c2cccc([N+](=O)[O-])c2)CCc2ccccc21,-12
16,N/C(=N\[N+](=O)[O-])N/N=C/c1ccc(O)cc1,3.79
17,Cc1nnc2ccc(-c3cccc(NS(C)(=O)=O)c3)nn12,-17.1
18,Cc1ccc(S(=O)(=O)NCCN2CCOCC2)c(C)c1.Cl,26.4
